# Measurements from the supplement of paper PMC8728848.
# Some of the results follow.
# B1: NKR-PIC (Mus musculus) (protein)
# chain: GTGQKPSREKCCVFIQENLNKTTDCSVNLECPQDWLLHRDKCFHVSQVSNTWEEGQADCGRKGATLLLIQDQEELRFLLDSIKEKYNSFWIGLRFTLPDMNWKWINGTTFNSDVLKITGVTENGSCASILGDKVTPESCASDNRWICQKELNHETPSNDSGT
# Experiments:
# Experiment in all cases: glycan array binding signal (z-score within array); higher = stronger binding
# Conditions in all cases: glycan notation: IUPAC condensed, linker removed
# [1] = molecular target: Fuc(a1-2)Gal(b1-4)GlcNAc(b1-3)Gal(b1-4)GlcNAc(b1-2)Man(a1-3)[Fuc(a1-2)Gal(b1-4)GlcNAc(b1-3)Gal(b1-4)GlcNAc(b1-2)Man(a1-6)]Man(b1-4)GlcNAc(b1-4)GlcNAc
# Method in brief: (§1)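 The binding signal is a Z-score computed within each array and averaged over linkers. Arrays of the same protein sequence at different concentrations or buffers were also averaged together. Data originate from 3228 arrays in the Consortium for Functional Glycomics database, kept only where the protein sequence was available.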
# [2] = molecular target: Fuc(a1-2)Gal(b1-4)GlcNAc(b1-3)Gal(b1-4)GlcNAc(b1-3)Gal(b1-4)GlcNAc
# Method in brief: as §1
# [3] = molecular target: Fuc(a1-2)Gal(b1-4)GlcNAc(b1-3)GalNAc
# Method in brief: as §1
# [4] = molecular target: Fuc(a1-2)Gal(b1-4)GlcNAc(b1-3)[Fuc(a1-2)Gal(b1-4)GlcNAc(b1-6)]GalNAc
# Method in brief: as §1
# [5] = molecular target: Fuc(a1-2)Gal(b1-4)GlcNAc(b1-3)[Fuc(a1-3)[Gal(b1-4)]GlcNAc(b1-6)]Gal(b1-4)Glc
# Method in brief: as §1
# [6] = molecular target: Fuc(a1-2)Gal(b1-4)GlcNAc(b1-6)GalNAc
# Method in brief: as §1
# [7] = molecular target: Fuc(a1-2)Gal(b1-4)GlcNAc6S
# Method in brief: as §1
# [8] = molecular target: Fuc(a1-2)Gal(b1-4)[Fuc(a1-3)]GlcNAc
# Method in brief: as §1
# [9] = molecular target: Fuc(a1-2)Gal(b1-4)[Fuc(a1-3)]GlcNAc(b1-2)Man(a1-3)[Fuc(a1-2)Gal(b1-4)[Fuc(a1-3)]GlcNAc(b1-2)Man(a1-6)]Man(b1-4)GlcNAc(b1-4)[Fuc(a1-6)]GlcNAc
# Method in brief: as §1
# [10] = molecular target: Fuc(a1-2)Gal(b1-4)[Fuc(a1-3)]GlcNAc(b1-2)[Fuc(a1-2)Gal(b1-4)[Fuc(a1-3)]GlcNAc(b1-4)]Man(a1-3)[Fuc(a1-2)Gal(b1-4)[Fuc(a1-3)]GlcNAc(b1-2)Man(a1-6)]Man(b1-4)GlcNAc(b1-4)GlcNAc
# Method in brief: as §1
# [11] = molecular target: Fuc(a1-2)Gal(b1-4)[Fuc(a1-3)]GlcNAc(b1-3)Gal(b1-4)[Fuc(a1-3)]GlcNAc
# Method in brief: as §1
# [12] = molecular target: Fuc(a1-2)Gal(b1-4)[Fuc(a1-3)]GlcNAc(b1-3)Gal(b1-4)[Fuc(a1-3)]GlcNAc(b1-3)Gal(b1-4)[Fuc(a1-3)]GlcNAc
# Method in brief: as §1
# [13] = molecular target: Fuc(a1-2)Gal(b1-4)[Fuc(a1-3)]GlcNAc(b1-3)GalNAc
# Method in brief: as §1
# [14] = molecular target: Fuc(a1-2)Gal(b1-4)[Fuc(a1-3)]GlcNAc(b1-3)[Neu5Ac(a2-6)Gal(b1-4)GlcNAc(b1-6)]Gal(b1-4)Glc
# Method in brief: as §1
# [15] = molecular target: Fuc(a1-2)Gal3S(b1-4)GlcNAc
# Method in brief: as §1
# [16] = molecular target: Fuc(a1-2)Gal6S(b1-3)GlcNAc
# Method in brief: as §1
# [17] = molecular target: Fuc(a1-2)Gal6S(b1-3)GlcNAc6S
# Method in brief: as §1
# Fuc(a1-2)Gal6S(b1-4)Glc = molecular target: Fuc(a1-2)Gal6S(b1-4)Glc
# Method in brief: as §1
# [18] = molecular target: Fuc(a1-2)Gal6S(b1-4)Glc6S
# Method in brief: as §1
# Fuc(a1-2)[Gal(a1-3)]Gal = molecular target: Fuc(a1-2)[Gal(a1-3)]Gal
# Method in brief: as §1
# [19] = molecular target: Fuc(a1-2)[Gal(a1-3)]Gal(b1-3)GalNAc
# Method in brief: as §1
# [20] = molecular target: Fuc(a1-2)[Gal(a1-3)]Gal(b1-3)GalNAc(b1-3)Gal(a1-4)Gal(b1-4)Glc
# Method in brief: as §1
# [21] = molecular target: Fuc(a1-2)[Gal(a1-3)]Gal(b1-3)GlcNAc
# Method in brief: as §1
# [22] = molecular target: Fuc(a1-2)[Gal(a1-3)]Gal(b1-3)GlcNAc(b1-2)Man(a1-3)[Fuc(a1-2)[Gal(a1-3)]Gal(b1-3)GlcNAc(b1-2)Man(a1-6)]Man(b1-4)GlcNAc(b1-4)GlcNAc
# Method in brief: as §1
# [23] = molecular target: Fuc(a1-2)[Gal(a1-3)]Gal(b1-3)GlcNAc(b1-2)Man(a1-3)[Fuc(a1-2)[Gal(a1-3)]Gal(b1-3)GlcNAc(b1-2)Man(a1-6)]Man(b1-4)GlcNAc(b1-4)[Fuc(a1-6)]GlcNAc
# Method in brief: as §1
# [24] = molecular target: Fuc(a1-2)[Gal(a1-3)]Gal(b1-3)GlcNAc(b1-3)GalNAc
# Method in brief: as §1
# [25] = molecular target: Fuc(a1-2)[Gal(a1-3)]Gal(b1-3)GlcNAc(b1-6)GalNAc
# Method in brief: as §1
# [26] = molecular target: Fuc(a1-2)[Gal(a1-3)]Gal(b1-4)Glc
# Method in brief: as §1
# [27] = molecular target: Fuc(a1-2)[Gal(a1-3)]Gal(b1-4)GlcNAc
# Method in brief: as §1
# [28] = molecular target: Fuc(a1-2)[Gal(a1-3)]Gal(b1-4)GlcNAc(b1-2)Man
# Method in brief: as §1
binder,measurement,setting,value
B1,glycan array binding signal (z-score),[1],-0.27
same,glycan array binding signal (z-score),[2],-0.32
same,glycan array binding signal (z-score),[3],-0.114
same,glycan array binding signal (z-score),[4],-0.311
same,glycan array binding signal (z-score),[5],-0.343
same,glycan array binding signal (z-score),[6],-0.261
same,glycan array binding signal (z-score),[7],-0.32
same,glycan array binding signal (z-score),[8],-0.316
same,glycan array binding signal (z-score),[9],-0.278
same,glycan array binding signal (z-score),[10],-0.33
same,glycan array binding signal (z-score),[11],-0.233
same,glycan array binding signal (z-score),[12],-0.285
same,glycan array binding signal (z-score),[13],-0.377
same,glycan array binding signal (z-score),[14],-0.323
same,glycan array binding signal (z-score),[15],-0.393
same,glycan array binding signal (z-score),[16],-0.248
same,glycan array binding signal (z-score),[17],-0.251
same,glycan array binding signal (z-score),Fuc(a1-2)Gal6S(b1-4)Glc,-0.317
same,glycan array binding signal (z-score),[18],-0.261
same,glycan array binding signal (z-score),Fuc(a1-2)[Gal(a1-3)]Gal,-0.304
same,glycan array binding signal (z-score),[19],-0.31
same,glycan array binding signal (z-score),[20],-0.329
same,glycan array binding signal (z-score),[21],-0.285
same,glycan array binding signal (z-score),[22],-0.385
same,glycan array binding signal (z-score),[23],-0.323
same,glycan array binding signal (z-score),[24],-0.407
same,glycan array binding signal (z-score),[25],-0.38
same,glycan array binding signal (z-score),[26],-0.406
same,glycan array binding signal (z-score),[27],0.014
same,glycan array binding signal (z-score),[28],-0.359
